Test results: PubChem BioAssay AID1508623 (National Center for Advancing Translational Sciences (NCATS), 2021)
Out of some 48,000 compounds screened, about 450 (0.94%) were called active. This list was built around the results that the source calls inconclusive (neither active nor inactive); the mix of calls is not that of the screen. The call rests on the fitted dose curve; in most records, active means well fitted inhibition curve with a large enough effect; inconclusive means small, poorly fitted or top-dose-only effect; inactive means no such curve, though single readings can be large or run the other way. Potencies beside an inconclusive call are fits to weak or partial responses and may not hold up.

Test: Primary qHTS for Identification of Small Molecule Inhibitors of Huntingtin Promoter Activity; further: nearly all actives have a fitted effect of over 50% in size
Settings: HEK293 HTT promoter firefly luciferase reporter (activity 0% = vehicle and -100% = no light), 24 h; series mostly up to 57.5 µM
Summary of the method: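 Luminescence was read after Dual-Glo reagent and a 10 min room-temperature incubation. Values were normalized to vehicle (0% activity) and zero RLU (-100% activity). Reporter HEK293 cells had been exposed to compounds (up to 57.5 uM final) for 24 h.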
Potency means the concentration at half of the fitted maximal effect; tags describe the fitted curve by direction and shape.

| Structure (SMILES) | Potency |
| --- | --- |
| CCC1CN(S(=O)(=O)c2ccc3c(c2)NC(=O)CC(=O)N3)c2cc(Cl)ccc2O1 (stereo not drawn) | inconclusive: 31.6 µM [inhibitor, single point] |
| CCOc1ccc(CNCc2c(C(=O)O)n(Cc3ccc(OC)cc3)c3ccccc23)cc1 | inconclusive: 25.1 µM [inhibitor, single point] |
| COc1ccc(N(C(=O)c2ccc(Cl)cc2)S(=O)(=O)c2ccc(C)cc2)cc1 | inconclusive: 39.8 µM [inhibitor, single point] |
| COc1cccc(-c2[nH]c3c(c2-c2c(-n4cccc4)n(C)c(=O)[nH]c2=O)c(=O)[nH]c(=O)n3C)c1 | inactive |
| COCCCNc1nc2c(c(=O)n(C)c(=O)n2C)n1Cc1ccccc1 | inconclusive: 39.8 µM [inhibitor, partial curve, poor fit] |
| Cc1ccc(C(=O)N2CCc3cc(CNC(=O)c4ccnn4C)ccc32)cc1 | inconclusive: 15.8 µM [inhibitor, partial curve, poor fit] |
| Cc1ccc(NS(=O)(=O)c2ccc3c(c2)NC(=O)CCS3)cc1F | inactive |
| CC1CCCCN1c1nc(-c2ccc(C(C)(C)C)cc2)nc2ccccc12 (stereo not drawn) | inconclusive: 8.91 µM [inhibitor, partial curve, poor fit] |
| COc1cc(NC(=O)Cn2c(=O)nc(-c3ccccc3F)c3cc(Cl)ccc32)cc(OC)c1 | inconclusive: 12.6 µM [inhibitor, partial curve, poor fit] |
| Cc1ccc(C)c(N2CCN(C(=O)Cn3c(C)c4cnn(-c5ccccc5)c(=O)c4c3C)CC2)c1 | inconclusive: 8.91 µM [inhibitor, partial curve, poor fit] |
| CCN(C(=O)Cn1cc(C(=O)c2ccc(F)cc2)c(=O)c2ccc(C)nc21)c1cccc(C)c1 | inactive |
| COC(=O)c1ccccc1NC(=O)Cn1nc(C(F)(F)F)c2c1CCCC2 | inconclusive: 28.2 µM [inhibitor, single point] |
| CCOc1ccc(C(=O)N2CCC(c3ccncc3)CC2)cc1 | inconclusive: 28.2 µM [inhibitor, partial curve, poor fit] |
| CC(C)c1ccc2occ(CC(=O)Nc3cccc(C(F)(F)F)c3)c2c1 | inconclusive: 31.6 µM [inhibitor, single point] |
| CCc1ccc(NC(=O)c2ccc3c(O)c(S(=O)(=O)c4ccccc4)c(=O)[nH]c3c2)cc1 | inactive |
| CCOc1ccc(NC(=O)c2oc(=O)c3ccccc3c2-c2ccc(C)cc2)cc1 | inconclusive: 39.8 µM [inhibitor, single point] |
| O=C(Nc1ccc(Br)cc1)c1ccc(Cl)c(S(=O)(=O)N2CCCCCC2)c1 | inconclusive: 2 µM [inhibitor, full curve] |
| CCCCN(CCCC)C1=C(C(=O)c2ccccc2)N(CC)S(=O)(=O)c2ccccc21 | inconclusive: 35.5 µM [inhibitor, single point] |
| COC(=O)CN1C(=O)C(C)(C)c2cc(S(=O)(=O)NCc3ccc(Cl)cc3)ccc21 | inactive |
| Cc1ccc2scc(N3CCN(c4cccc(C(F)(F)F)c4)CC3)c(=O)c2c1 | inactive |

| Structure (SMILES) | Potency |
| --- | --- |
| Cc1ccc(Nc2nc(C(N)=O)c(NC(=O)c3ccccc3Br)s2)cc1 | inactive |
| COc1cc(OC)cc(-c2ccc3ncc4ccc(=O)n(-c5ccc(N6CCNCC6)c(C(F)(F)F)c5)c4c3c2)c1 | inconclusive: 6.11 µM [inhibitor, full curve] |
| CC(=O)N1CCCc2cc(S(=O)(=O)Nc3ccc(OC(F)(F)F)cc3)ccc21 | inconclusive: 25.1 µM [inhibitor, partial curve] |
| Cc1cccc(C)c1NC(=O)c1cc(S(=O)(=O)N2CCCc3ccccc32)ccc1F | inconclusive: 20 µM [inhibitor, single point] |
| COc1cccc(C(=O)NCCc2sc(-c3cccc(C)c3)nc2C)c1 | inactive |
| COc1cccc(NC(=O)c2oc3ccccc3c2NC(=O)c2ccc(OC(C)C)cc2)c1 | inactive |
| COc1ccc2nc(N3CCN(C(=O)CS(=O)(=O)c4ccc(C)cc4)CC3)sc2c1 | inconclusive: 39.8 µM [inhibitor, partial curve, poor fit] |
| Cc1ccc(-c2cnc(C3CC3)o2)cc1S(=O)(=O)Nc1ccc(F)cc1Cl | inconclusive: 35.5 µM [inhibitor, single point] |
| CC(C)CC(=O)Nc1cccc(-c2cn3cccnc3n2)c1 | inactive |
| CC1CCN(S(=O)(=O)c2ccc3nc(Nc4cccc(F)c4)ccc3c2)CC1 | inconclusive: 39.8 µM [inhibitor, single point] |
| C[C@@H]1C(=O)O[C@H]2CC34[C@H]5C[C@@H](C(C)(C)C)C36[C@H](OC(=O)[C@@H]6O)O[C@@]4(C(=O)O5)[C@]21O (stereo partly drawn) | inactive |
| COc1ccc(CNC(=O)c2cc(-c3ccc(OC)c(OC)c3)nc3n[nH]c(-c4ccc(C)cc4)c23)cc1 | inconclusive: 14.1 µM [inhibitor, partial curve, poor fit] |
| O=C(CSc1ccc2nc(-c3ccccc3)cn2n1)Nc1ccccc1 | inconclusive: 31.6 µM [inhibitor, partial curve, poor fit] |
| COc1ccc(N(C)C(=O)c2oc(=O)c3ccccc3c2-c2ccc(C)cc2)c(OC)c1 | inconclusive: 28.2 µM [inhibitor, single point] |
| N#Cc1c(-n2ncnc2-c2ccccc2Cl)sc2c1CCCCC2 | inconclusive: 3.98 µM [inhibitor, single point] |
| CCOC(=O)c1ccc(N2C(=O)c3n[nH]c(-c4cccs4)c3C2c2cccc(O)c2)cc1 (stereo not drawn) | inconclusive: 35.5 µM [inhibitor, single point] |
| CC(C)c1ccc(CNC(=O)c2ccc(N3CCCC3)c(NC(=O)NCc3ccc(F)cc3)c2)cc1 | inconclusive: 25.1 µM [inhibitor, partial curve] |
| CCCOc1ccc(CNC(=O)CCCN2C(=O)CSc3c2c(C)nn3-c2ccccc2)cc1 | inconclusive: 14.1 µM [inhibitor, partial curve] |
| CCOc1ccccc1NC(=O)CSc1nc2cc(OC)c(OC)cc2c2nc(CCn3c(C)nc4ccccc43)nn12 | inconclusive: 3.16 µM [inhibitor, full curve, poor fit] |
| N#Cc1cccc(NC(=O)C2CCN(S(=O)(=O)c3ccc4c(c3)CCCN4C(=O)C3CCC3)CC2)c1 | inconclusive: 22.4 µM [inhibitor, partial curve] |

| Structure (SMILES) | Potency |
| --- | --- |
| Cc1ccc2oc(C(=O)NCC(c3ccc(Cl)cc3)N3CCOCC3)c(C)c2c1 (stereo not drawn) | inconclusive: 20 µM [inhibitor, single point] |
| COc1ccccc1NC(=O)CN1C(=O)C(C)(C)c2ccccc21 | inconclusive: 3.98 µM [inhibitor, partial curve, poor fit] |
| Cc1ccc(/C=C/c2onc(C)c2S(=O)(=O)N2CCC(C(=O)Nc3cccc(C#N)c3)CC2)cc1 | inconclusive: 25.1 µM [inhibitor, partial curve, poor fit] |
| CCOC(=O)COc1ccc(CC)cc1C(=O)c1ccn2nc(-c3ccc(C)cc3)cc2n1 | inconclusive: 39.8 µM [inhibitor, single point] |
| O=C(NCCCN1CCN(c2ccccc2F)CC1)c1ccc2nc(Cc3ccccc3)oc2c1 | inconclusive: 28.2 µM [inhibitor, partial curve, poor fit] |
| O=C(NCc1ccc(Cl)cc1)C1CCN(C(=O)c2cnn(-c3ccccc3)c2-n2cccc2)CC1 | inconclusive: 28.2 µM [inhibitor, partial curve] |
| COc1ccccc1CNC(=O)CSc1nc2nc(C)c(Cc3ccccc3C)c(C)n2n1 | inconclusive: 39.8 µM [inhibitor, single point] |
| O=C(c1cccc([N+](=O)[O-])c1)N1c2nc(-c3ccco3)nn2C2(CCCCC2)[C@@H]2CCCC[C@@H]21 | inconclusive: 28.2 µM [inhibitor, partial curve, poor fit] |
| Cc1cc(C(=O)Nc2cccc(C(F)(F)F)c2)c2c(C)nn(-c3cccc(F)c3)c2n1 | inconclusive: 39.8 µM [inhibitor, partial curve, poor fit] |
| O=S(=O)(NCCc1csc2nc(-c3ccc(F)cc3)nn12)c1ccc2c(c1)OCCO2 | inconclusive: 31.6 µM [inhibitor, partial curve, poor fit] |
| CN1CCC(N(Cc2cccs2)c2ccccc2)CC1 | inactive |
| CC(=O)c1cccc(NC(=O)C2CCN(c3nnc(-n4cccc4)s3)CC2)c1 | inactive |
| Cc1cc2c(n1-c1ccc(C(=O)NCc3cccc(Br)c3)cc1)CCC(C)C2 (stereo not drawn) | inconclusive: 31.6 µM [inhibitor, partial curve, poor fit] |
| Cc1ccccc1Cn1c(=O)n(CCCCC(=O)NCc2ccc3c(c2)OCO3)c(=O)c2ccccc21 | inactive |
| CC[C@]12C=CCN3CC[C@@]4(c5cc([C@@]6(C(=O)OC)C[C@H]7C[C@@H](C(C)(F)F)CN(Cc8c6[nH]c6ccccc86)C7)c(OC)cc5N(C)[C@H]4[C@@](O)(C(=O)OC)[C@H]1OC(C)=O)[C@@H]32 | inconclusive: 0.193 µM [inhibitor, full curve] |
| CCOc1ccc(C(=O)Nc2c(C)nc(Nc3ccccc3)nc2Nc2ccccc2)cc1OCC | inconclusive: 25.1 µM [inhibitor, single point] |
| COc1ccc(COc2cc3oc(=O)c4cc(C(C)O)ccc4c3cc2OC)cc1 (stereo not drawn) | inconclusive: 21.7 µM [inhibitor, partial curve] |
| COc1ccc(CCNc2nc(-c3ccccc3OC)cc(C(F)(F)F)n2)cc1OC | inconclusive: 28.2 µM [inhibitor, single point] |
